Results are given in words; binding and its absence hold for the method and conditions named. Binding seen in cells or lysates may run through a third protein. Some binding calls cover weakened binding; strength is not graded here.
Key:
[1] = biological target: BRAF, wild type, ectopically expressed (human) (UniProt P15056); assay: co-IP; 293T cells transfected with the indicated plasmids; co-IP with anti-FLAG antibody from whole-cell lysates, Western blot
[2] = biological target: SPOP, endogenous in Ishikawa cells (human (endogenous in Ishikawa)) (UniProt O43791); assay: co-IP; endogenous proteins; cell extracts of Ishikawa cells; co-IP with IgG, anti-SPOP or anti-BRAF antibody, Western blot
[3] = biological target: BRAF, endogenous in Ishikawa cells (human (endogenous in Ishikawa)) (UniProt P15056); assay: as above
[4] = biological target: Speckle-type BTB/POZ protein (SPOP), wild type, ectopically expressed (UniProt O43791); assay: co-IP; 293T cells transfected with the indicated plasmids; co-IP with anti-FLAG antibody from whole-cell lysates, Western blot
BRAF-ΔSBC mutant (human) = BRAF-ΔSBC mutant (human) (UniProt P15056); assay: as above

By UniProt entry, the sequences of proteins in these tests, tags left out. Where a name states a change or a piece, a line headed by the entry shows the natural chain unless it says otherwise. Chains listed by the source or under a name are the forms on record and can include a tag or linker.
UniProt P15056: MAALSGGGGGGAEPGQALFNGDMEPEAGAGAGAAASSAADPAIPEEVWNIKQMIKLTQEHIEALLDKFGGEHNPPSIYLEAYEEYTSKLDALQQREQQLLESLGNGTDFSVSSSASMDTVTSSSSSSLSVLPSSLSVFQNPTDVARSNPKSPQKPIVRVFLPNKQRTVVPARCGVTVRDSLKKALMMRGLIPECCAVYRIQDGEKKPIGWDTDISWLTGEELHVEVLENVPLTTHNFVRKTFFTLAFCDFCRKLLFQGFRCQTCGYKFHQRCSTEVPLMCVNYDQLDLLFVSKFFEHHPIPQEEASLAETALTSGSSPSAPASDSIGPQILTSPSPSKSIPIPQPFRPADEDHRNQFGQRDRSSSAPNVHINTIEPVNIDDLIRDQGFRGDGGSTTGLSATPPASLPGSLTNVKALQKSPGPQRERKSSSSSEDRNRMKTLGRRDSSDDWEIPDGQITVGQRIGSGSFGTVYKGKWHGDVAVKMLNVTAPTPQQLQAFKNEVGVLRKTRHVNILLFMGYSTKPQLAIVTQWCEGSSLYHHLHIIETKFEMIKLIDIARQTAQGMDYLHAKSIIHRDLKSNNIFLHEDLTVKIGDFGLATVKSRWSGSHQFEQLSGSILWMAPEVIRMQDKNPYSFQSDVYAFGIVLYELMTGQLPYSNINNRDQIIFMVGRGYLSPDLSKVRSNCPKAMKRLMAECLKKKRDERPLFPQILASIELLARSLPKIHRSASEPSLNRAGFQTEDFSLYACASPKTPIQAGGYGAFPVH
BRAF-ΔSBC mutant (P15056, form named): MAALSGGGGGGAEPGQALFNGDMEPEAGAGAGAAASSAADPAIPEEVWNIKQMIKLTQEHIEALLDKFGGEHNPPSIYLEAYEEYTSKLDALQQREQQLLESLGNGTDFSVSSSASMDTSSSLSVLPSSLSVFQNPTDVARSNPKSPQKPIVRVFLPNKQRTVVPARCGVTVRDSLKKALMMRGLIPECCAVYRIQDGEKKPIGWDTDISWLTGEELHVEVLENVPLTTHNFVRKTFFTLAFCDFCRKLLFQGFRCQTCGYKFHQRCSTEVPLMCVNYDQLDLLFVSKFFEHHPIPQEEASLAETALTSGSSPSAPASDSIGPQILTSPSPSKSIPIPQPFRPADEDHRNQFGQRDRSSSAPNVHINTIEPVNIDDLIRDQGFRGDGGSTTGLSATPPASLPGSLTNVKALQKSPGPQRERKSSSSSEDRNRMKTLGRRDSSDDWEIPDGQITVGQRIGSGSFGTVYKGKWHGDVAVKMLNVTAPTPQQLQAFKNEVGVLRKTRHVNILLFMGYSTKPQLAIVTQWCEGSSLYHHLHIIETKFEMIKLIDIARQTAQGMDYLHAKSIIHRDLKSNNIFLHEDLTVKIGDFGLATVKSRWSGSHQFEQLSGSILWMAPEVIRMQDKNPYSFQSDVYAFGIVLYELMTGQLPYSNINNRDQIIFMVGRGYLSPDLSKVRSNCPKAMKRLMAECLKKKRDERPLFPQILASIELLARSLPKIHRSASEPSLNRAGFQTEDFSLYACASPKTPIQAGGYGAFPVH
UniProt O43791: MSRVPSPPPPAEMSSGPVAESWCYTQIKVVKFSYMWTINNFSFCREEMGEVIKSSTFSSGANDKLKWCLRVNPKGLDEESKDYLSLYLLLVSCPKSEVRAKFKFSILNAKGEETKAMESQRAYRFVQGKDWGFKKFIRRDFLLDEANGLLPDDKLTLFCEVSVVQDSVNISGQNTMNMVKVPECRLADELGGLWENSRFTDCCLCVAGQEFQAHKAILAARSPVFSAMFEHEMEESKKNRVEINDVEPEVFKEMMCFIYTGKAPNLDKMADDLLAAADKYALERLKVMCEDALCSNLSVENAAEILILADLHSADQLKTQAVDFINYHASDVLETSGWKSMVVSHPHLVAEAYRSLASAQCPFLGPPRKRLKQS

Question: “SPOP-Y87C mutant (from UniProt O43791 1-374)” was tested. Which binding [1] did it give?
Answer: binds

Question: “BRAF, endogenous in Ishikawa cells (from UniProt P15056 1-766)” was tested. Which binding [2] did it give?
Answer: binds

Question: For “SPOP, endogenous in Ishikawa cells (from UniProt O43791 1-374)”, which binding [3] is on record?
Answer: binds

Question: “BRAF, wild type, ectopically expressed (from UniProt P15056 1-766)” was tested. Which binding [4] did it give?
Answer: binds

Question: “Speckle-type BTB/POZ protein (SPOP), wild type, ectopically expressed (from UniProt O43791 1-374)” was tested. Which binding [1] did it give?
Answer: binds

Question: And the binding (BRAF-ΔSBC mutant (human))?
Answer: no binding

Source: paper PMC9805134
